Laboratory results taken from PubChem BioAssay AID686979 (National Center for Advancing Translational Sciences (NCATS), 2013).
Hit rate of the full screen: of about 420,000 compounds, about 50,000 (12%) were called active. Inconclusive results (about 26%) are left out. Calls follow the shape of the dose curve; as a rule, active = well fitted inhibition curve with a large enough effect; inconclusive = small, poorly fitted or top-dose-only effect; inactive = flat fitted curve, though single readings scatter. This is a selection; strong and weak results do not stand in their true shares.

Assay: qHTS for Inhibitors of human tyrosyl-DNA phosphodiesterase 1 (TDP1): qHTS in cells in presence of CPT; also: nearly all actives have a fitted effect of over 55% in size
Details: chicken DT40 Tdp1-/-;hTDP1 cells + 20 nM CPT, ATP luminescence, 48 h; series mostly up to 46.2 µM; activity change, negative = growth inhibition: at the top concentration
Summary of the method: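 Cell growth measured by CellTiter-Glo luminescence after a minimum 48 h, 37 C compound exposure with 20 nM CPT in Tdp1-knockout DT40 cells stably expressing hTDP1, seeded 400/well; qHTS titration format.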
% is scaled to controls: 0 for no effect and ±100 for the full control effect; potency is read from the fitted curve at half-maximal effect.

Row | SMILES | Potency | activity change, negative = growth inhibition
1 | CC(=O)OC(C)C[N+](C)(C)C (stereo not given) | inactive | 
2 | COCCNC(=S)N1CCN(S(C)(=O)=O)CC1 |  | inactive: 34.5%
3 | O=C(O)c1cc(=O)c2c(OCC(O)COc3cccc4oc(C(=O)O)cc(=O)c34)cccc2o1 | inactive | 
4 | CCN(CC)C(=O)COc1ccc(-c2nnc(Nc3ccc(OC)c(C(=O)NC)c3)c3ccccc23)cc1 |  | inactive: -21.2%
5 | C[C@H]1CN([C@@H](C)CO)C(=O)CCCn2nncc2CO[C@@H]1CN(C)S(=O)(=O)c1ccc2ccccc2c1 |  | inactive: -27%
6 | CCCC(C(=O)OCCN(CC)CC)(c1ccccc1)c1ccccc1 |  | inactive: -19.4%
7 | COc1ccc(NC(=O)c2c(C)oc3ccc(O)c(CN4CCN(Cc5ccccc5)CC4)c23)cc1Cl | active: 18.4 µM | 
8 | CCN(CC)c1c([N+](=O)[O-])c(=O)sc2ccccc12 |  | inactive: -26.6%
9 | CC(CN1CCOCC1)OC(=O)/C=C/c1ccccc1 (stereo not given) |  | inactive: 30.8%
10 | Cc1ccc(C(=O)C(C)CN2CCCCC2)cc1 (stereo not given) |  | inactive: 8.34%
11 | O=C(O)C1CCCN1C(=O)C12CC3CC(CC(C3)C1)C2 (stereo not given) |  | inactive: 39%
12 | CCc1ccc(C(C)NC(=O)C2CCCC2)cc1 (stereo not given) |  | inactive: 30.7%
13 | CCCC(=O)Nc1ccc(NC(=O)C2CC2)cn1 |  | inactive: 20%
14 | O=C(O)Cc1ccc(O)c(O)c1 |  | inactive: -11.8%
15 | CCCc1nc2c(C)cc(-c3nc4ccccc4n3C)cc2n1Cc1ccc(-c2ccccc2C(=O)O)cc1 |  | inactive: -6.68%
16 | CC(C)(C)OC(=O)Nc1ccc([C@H](NC(=O)OC(C)(C)C)C(=O)OC(C)(C)C)cc1 |  | inactive: -24.5%
17 | CCN(CC)C(=O)[C@H]1C[C@H](CC(=O)NCC23CC4CC(CC(C4)C2)C3)C(=O)N2CCc3c([nH]c4ccc(Cl)cc34)[C@]12C | active: 16.4 µM | 
18 | O=C(CN1C(=O)NC2(CCCC2)C1=O)Nc1ccccc1 |  | inactive: 31.7%
19 | COc1ccc([C@H]2CC(=O)C=C(c3ccnc4ccc(Cl)cc34)C2)cc1 | active: 8.2 µM | 
20 | NC(C(=O)NC1C(=O)N2C(C(=O)O)=C(Cl)CSC12)c1ccccc1 (stereo not given) |  | inactive: -19.7%
21 | CCc1ccc(-c2cc(C)no2)cc1S(=O)(=O)Nc1ccc(C)cn1 |  | inactive: -28.6%
22 | O=C(Nc1cccc2ncccc12)c1ccc(Cl)cc1 |  | inactive: 24.9%

Row | SMILES | Potency | activity change, negative = growth inhibition
23 | CCN1CCSc2ccc(C(=O)NCc3ccccc3Br)cc21 |  | inactive: -100%
24 | COc1ccc(CCNC(=O)/C(C#N)=C/c2ccc(OCC(=O)NCC3CCCO3)cc2)cc1OC (stereo not given) |  | inactive: -5.53%
25 | CC(C(=O)NCc1ccco1)n1cc([N+](=O)[O-])cn1 (stereo not given) |  | inactive: 44.1%
26 | CCCC(=O)Nc1ccc(OCC(O)CNC(C)C)c(C(C)=O)c1 (stereo not given) | inactive | 
27 | Cc1ccc(C)c(N2CCN(C3=C(c4ccccc4)C(=O)c4ccccc43)CC2)c1 | active: 7.31 µM | 
28 | C=C1C(=O)O[C@H]2[C@H]1[C@H](OC(=O)/C(C)=C\C)C[C@]1(CO1)[C@@H]1[C@H](OC(C)=O)C=C(C)[C@]21O | active: 11.6 µM | 
29 | CS(=O)(=O)c1ncc(Cl)c(C(=O)Nc2ccc(OC(F)F)cc2)n1 | active: 0.82 µM | 
30 | COc1ccc(CCNC(=O)c2cc3sccc3n2Cc2ccc(Cl)cc2)cc1OC | active: 13 µM | 
31 | CCOC(=O)c1cnc(-n2nc(C)cc2C)nc1Nc1ccc(C)cc1 | active: 4.61 µM | 
32 | CC1(c2ccc3ccccc3c2)NC(=O)N(CC(=O)NCc2cccs2)C1=O (stereo not given) |  | inactive: -22.5%
33 | Nc1c(C(=O)c2ccc(Cl)cc2)oc2ccccc12 |  | inactive: 8.68%
34 | O=C(Nc1ccc(F)c(Cl)c1)c1ccc2sc([C@H]3C[C@H](O)[C@@H](CO)O3)nc2c1 | active: 18.4 µM | 
35 | COC(=O)c1ccccc1NC(=O)CCCn1nc(C)c2c(C)n(-c3ccccc3)nc2c1=O |  | inactive: -20.9%
36 | O=C(Cc1ccc(Cl)cc1)Nc1ccc(Cl)cn1 |  | inactive: 38.2%
37 | COc1ccc(OC)c(/C=C/c2ccc3ccccc3[n+]2C)c1 | active: 2 µM | 
38 | C=CC(C)N1C(=O)S/C(=C\c2ccc(N3CCOCC3)cc2C)C1=O (stereo not given) | active: 20.6 µM | 
39 | Cc1onc(-c2ccccc2)c1C(=O)N1CCCSC1=Nc1ccccc1 |  | inactive: 38.7%
40 | O=C(COC(=O)c1cccnc1Cl)NC1CCCc2ccccc21 (stereo not given) |  | inactive: -4.2%
41 | O=C(O)c1n[nH]nc1-c1ccccc1 |  | inactive: 44.8%
42 | C#CCOCCOCCOCCNc1nc(N2CCN(C(=O)C([C@@H](C)O)n3cc([C@@H](N)CCCCN)nn3)CC2)nc(N2CCN(C(=O)[C@H](CCCN=C(N)N)n3cc(C(N)[C@@H](C)CC)nn3)CC2)n1 (stereo not given in full) |  | inactive: 31.2%
43 | O=C(CCn1c(=O)[nH]c2ccccc2c1=O)Nc1ccccc1 |  | inactive: 37.6%
44 | COc1c(O)cc2c(c1O)[C@@H]1OC(CO)C(O)C(O)[C@H]1OC2=O (stereo not given in full) |  | inactive: 0.362%

Row | SMILES | Potency | activity change, negative = growth inhibition
45 | CCCC(CCC(=O)Nc1ccc(C(=O)OC)cc1)C(=O)O (stereo not given) |  | inactive: 32.4%
46 | COc1nnc(-c2ccc(N3CCCCC3)c(NC(=O)c3ccccc3Cl)c2)c2ccccc12 | active: 6.51 µM | 
47 | COc1cc2ccc(=O)oc2cc1O | inactive | 
48 | COc1cc(NS(=O)(=O)c2ccc(N)cc2)nc(OC)n1 | inactive | 
49 | Cc1cccc(CNC(=O)c2ccc3c(c2)N(C)C(=O)C2CCCCN32)c1 (stereo not given) | active: 13 µM | 
50 | O=C(Nc1ncccn1)C12CC3CC(CC(C3)C1)C2 |  | inactive: 40.9%
51 | CSc1ncnc2c1ncn2CCCNCCCc1ccccc1 |  | inactive: 5.91%
52 | Cc1nn(CC(=O)NCC2CCCO2)c(=O)c2cc3ccccc3n12 (stereo not given) |  | inactive: 40.8%
53 | CCOC(=O)[C@@H]1[C@H]2COc3cc(OC)ccc3[C@@H]2N2C(=O)N(c3ccc(C)cc3)C(=O)[C@@]12C |  | inactive: -18.7%
54 | COC(=O)[C@@H]1[C@H](CCc2ccccc2)NC(=O)N(Cc2ccccc2)[C@@H]1C |  | inactive: -8.12%
55 | COc1cc(NC(=O)C2CCCN2S(=O)(=O)c2cccc3cccnc23)cc(OC)c1OC (stereo not given) |  | inactive: -0.757%
56 | COc1ccc(NS(=O)(=O)c2cc3c(cc2C)NC(=O)CO3)c(OC)c1 |  | inactive: -6.26%
57 | Cc1c(NC(=O)c2c(O)c3ccccc3n(C)c2=O)c(=O)n(-c2ccccc2)n1C |  | inactive: 39.4%
58 | CN(C)CC[C@@H](c1ccc(Br)cc1)c1ccccn1 |  | inactive: -24.3%
59 | Cc1ccc(O)c(NC(=O)c2noc3c2CCCCC3)c1 |  | inactive: -2.42%
60 | CCc1c(C)nc2c(OC)cccc2c1Cl |  | inactive: -25.1%
61 | CC(C)c1ccc(NC(=O)C2CCN(S(=O)(=O)c3ccc4c(c3)C(C)(C)C(=O)N4C)CC2)cc1 | active: 16.4 µM | 
62 | CC(=O)c1ccc(NC(=O)COC(=O)C2C3CC4OC(=O)C2C4C3)cc1 (stereo not given) |  | inactive: 34.6%
63 | Cc1sc(NC(=O)c2cccs2)c(C(=O)OC(C)C)c1C |  | inactive: -19.2%
64 | O=c1[nH]c2cc(Cl)ccc2c(O)c1-c1cccc(Oc2ccccc2)c1 |  | inactive: -7.32%
65 | COC(=O)c1c(C)c2c(c(C)c1O)OC(=O)c1c(C)c(Cl)c(O)c(Cl)c1O2 |  | inactive: 6.42% [at 9.04 µM]
